Here are results for 1 molecule from patent publication US20220119490A1 (Genentech, published 2022).

The assay deals with T1, CHL1 extracellular domain (human, UniProt O00533 25-1082).
T1 construct: extracellular domain; Soluble query (streptavidin tetramer) in cell assays; recombinant protein (R&D) in SPR; also called neural cell adhesion molecule L1-like protein; close homolog of L1
T1 sequence (looked up): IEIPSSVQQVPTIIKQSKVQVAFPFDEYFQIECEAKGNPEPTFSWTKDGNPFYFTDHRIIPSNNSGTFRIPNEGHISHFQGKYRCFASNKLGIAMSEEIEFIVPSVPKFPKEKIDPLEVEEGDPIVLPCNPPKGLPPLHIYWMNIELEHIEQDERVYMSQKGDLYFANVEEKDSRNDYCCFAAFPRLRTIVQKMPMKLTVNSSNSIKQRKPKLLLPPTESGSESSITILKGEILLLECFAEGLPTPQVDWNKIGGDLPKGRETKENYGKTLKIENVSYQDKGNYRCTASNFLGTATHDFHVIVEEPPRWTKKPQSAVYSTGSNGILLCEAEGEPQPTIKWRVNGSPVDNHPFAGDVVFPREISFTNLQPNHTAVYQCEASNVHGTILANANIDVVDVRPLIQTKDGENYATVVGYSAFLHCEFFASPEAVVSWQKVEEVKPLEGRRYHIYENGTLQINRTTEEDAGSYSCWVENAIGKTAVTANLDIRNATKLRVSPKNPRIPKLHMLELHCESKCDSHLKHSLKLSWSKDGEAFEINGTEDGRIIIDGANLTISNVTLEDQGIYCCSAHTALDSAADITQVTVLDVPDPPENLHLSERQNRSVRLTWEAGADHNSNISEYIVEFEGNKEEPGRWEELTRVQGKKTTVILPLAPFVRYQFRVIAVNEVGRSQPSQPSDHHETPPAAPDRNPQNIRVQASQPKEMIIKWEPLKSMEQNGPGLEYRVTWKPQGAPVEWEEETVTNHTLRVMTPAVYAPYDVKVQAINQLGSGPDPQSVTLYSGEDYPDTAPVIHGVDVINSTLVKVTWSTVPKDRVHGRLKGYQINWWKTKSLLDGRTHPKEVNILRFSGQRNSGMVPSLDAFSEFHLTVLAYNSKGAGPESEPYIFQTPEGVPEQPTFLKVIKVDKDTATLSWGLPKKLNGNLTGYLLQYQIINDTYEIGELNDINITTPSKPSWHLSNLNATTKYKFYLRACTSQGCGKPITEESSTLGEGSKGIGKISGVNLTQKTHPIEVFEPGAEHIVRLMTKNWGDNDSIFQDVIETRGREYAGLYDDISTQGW
In words: cell surface interaction assay: streptavidin-tetramerized biotinylated ECD on transfected cells, immunofluorescence.

B1: BTLA expressed on cells (receptor)
chain: not shown
notes: whole, on cells; also called B- and T-lymphocyte attenuator
B1: the binding result is reported as “binds”.
